In the supplement of paper PMC11417369:
The list shows a part of the results.

These sequences were tested on PfSIP2 AP2 domain 1 (GST-tagged) (assay: gcPBM binding intensity (ln(normalized median fluorescence intensity)); higher = stronger DNA binding).
Summary of the method: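 Binding of GST-tagged P. falciparum DNA-binding domains, expressed in E. coli and used at about 25 μg on average, was carried out for 1 h in 1× PBS containing 1% milk, 0.2 mg/ml BSA, 0.5% salmon testes DNA and 0.03% Triton X-100. The target was an Agilent 4 × 180k array of primer-extended double-stranded 36-bp intergenic genomic probes plus negative controls, read with Alexa488 anti-GST antibody at 488 nm. Binding intensity is the highest Masliner-normalised natural-log median intensity across replicate spots of either probe orientation.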

Sequence	gcPBM binding intensity (ln)
ATATAGGTATTTAATACACACAAAACTTTCATTCCA [CACACA_site7627]	6.99
AAGGATGATACAACTTGTACATATTTGCTTAATATA [XGTACX_site764]	6.8
ATATAAATATATTGCACACACAATTATTATTATTAT [CACACA_site7147]	7.15
TATAATGTTAAATAATGTACATATTTTTTTTTTTTT [XGTACX_site4721]	7
AAAGCTAATATTATATGTACTTATATATTTATATAT [XGTACX_site4474]	7.04
ATATAAATCTACACCGCACACAAAAACAACAAATAT [CACACA_site2506]	7.35
AAATAAATGAAACACACACACACAAAAAAAAAAAAC [CACACA_site2625]	7
AGGATACACAGACACACACACATATATATATATATA [CACACA_site907]	9.2
TAAATAGATGTTTTATGTACGTATAAATAAAAAAAA [XGTACX_site3412]	6.95
TTTTTTTAAAGACATGCATGTAATATTTAAATCATT [TGCATGCA_site495]	6.94
ATTAAAAATATAGTCACACATACACCCATATATATT [CACACA_site5394]	6.92
AATATATTTTTTCACTGTACTTTTATTATATATACA [XGTACX_site8312]	7.26
AAAAAAAATGGATGATCACACACTTCATAAAAATTG [CACACA_site2213]	6.85
ATAATTTTTTGATTTGCATGTAATAAATATATGATA [TGCATGCA_site384]	7.01
GATTTTTTTTTGTGGACACACAGAAATAAATTTATA [CACACA_site327]	7.04
ATACAACGATATATATATATACAAATACATATTTAT [CACACA_negctrl_site268]	7.15
CACATACAGATATATACACACAAATATATATACTCA [CACACA_site4591]	7.29
TTTGTAAAACTATATTGTACTTTTATATATCTACAA [XGTACX_site5507]	6.9
ACAACTCGGAAGGTTTGTACTTAAAGTATAATTAAG [XGTACX_site737]	6.95

Sequence	gcPBM binding intensity (ln)
AATTGGAAGAAAAAAAAGGAAGGAAAGTTATTACAT [GTGCAC_negctrl_site74]	6.49
TATATACATGCATATACACACATATATTTATTTATA [CACACA_site6327]	7.03
TCATACATGGTGTGTTTGCACTTGACCTATATTCAT	7.57
TCTTGAATAACAAAAAAATGTGCCAACAAAATAAAT [XGTACX_negctrl_site172]	7.08
GTATATATGTATGTATGTACGTATATAGTTATGTAT [XGTACX_site6769]	7.42
ATAAAAAAATTAAATACATGCACATATACACATACA [TGCATGCA_site129]	7.81
TACTGAAATAATTATTTAAACGTTTTTATATGTATT [CACACA_negctrl_site487]	6.81
TTTATTTTTTCCAAGTCACACATGTTTTGATATATT [CACACA_site4946]	7.04
TTTTTTAACCTTTTATGTACACAATATTTAACATTT [XGTACX_site1170]	7.08
ACTTACACAGTTGATGGTACACTTTTATGATTTTGT [XGTACX_site3205]	7.01
ATTTCATATTATGTAACACACAACAAGATAATCAAA [CACACA_site1960]	6.85
TATATATAAAGGTGTACACATATATATATATCTGTA [CACACA_site5311]	7.24
ACAAGTTAAAATATTACACACATATAAATATATATA [CACACA_site3132]	7.25
TTTTATTTACACAGTGGTACTATTAAAAATTAATGA [XGTACX_site6737]	6.96
ATAAGGTTACAACAAACACACAAAGGAATATACTCA [CACACA_site6108]	6.9
ATAATATGAAAACACACACACACACTAGAAAAAAAA [CACACA_site5153]	7.02
ATTATTTAAATGGATGCACACATGCATTAAATAAAA [CACACA_site5831]	8.52
AAAAAAAAAAATATAACACACAACAAAAAAATATAT [CACACA_site1753]	7.1
AATATTTGTTAAAGAGGTACACCATTTGGTAGGGAA [XGTACX_site2165]	7.06

Sequence	gcPBM binding intensity (ln)
TATTTTAACATTAGGTGTACATACAAAAATAAAAAT [XGTACX_site8577]	7.37
TTTTTCAAATTTAATACACACACAAGTATATATTTA [CACACA_site9307]	6.74
TTTTTCTTTTTACATACACACAAAAAAATAAAATAT [CACACA_site581]	7.16
AAATTAATATTATGTGCATGCACAAAGAGGAACGAC [TGCATGCA_site754]	9.49
TGGTAATTTCTTTGATAAAAATTAATATGTATAAAT [XGTACX_negctrl_site152]	6.82
TAATTAAATAAAAAAACACACACATATATACATATA [CACACA_site9141]	6.84
TCTATTAATTAATATACACACATTAGATATAAATAT [CACACA_site7241]	7.05
ACACATATATAAATATGTACATATATATATATACAT [XGTACX_site1595]	7.3
AAAAAACAAAAAATTACACACATATATAAATATATT [CACACA_site2317]	6.82
TAATAAAGGTGTAATACACACTATAAAAAGGAATAT [CACACA_site4756]	7.1
ATGTGTATATATTATTGTACATATATATATATATAT [XGTACX_site4627]	9.69
AAAAAAAAAAAAAAAAGTACTAATTGAATATTAAAC [XGTACX_site3383]	7.52
ACATATATATAAATATATATATATATATATATATAT [CACACA_negctrl_site874]	9.38
ATGGTAAGTATTTTATGTACATATATATTTATATAA [XGTACX_site4003]	7.16
TACACCCATAGACACACACACACGCATAAAAAAAAA [CACACA_site8428]	7.55
TTATTATGCTGAGTACGTACTTATATAAGAATAGCA [XGTACX_site2955]	7.29
TAAGTTCACAAAAAAAAAAAAAAATAAAGAAATAAA [CACACA_negctrl_site825]	6.65
AAATTATTTCCGTGTACACATAAATATATATTTTAT [CACACA_site5121]	7.52
